How the values were obtained:
[1] = target: T1, human PDGF alpha-receptor (human, UniProt P16234 24-1089); assay: competition with 30 ng/ml 125I-labeled truncated PDGF-C on PAE-1 cells expressing PDGF alpha receptors
T1 construct: whole, on cells; also called PDGF receptor alpha; PDGFR-alpha
Protocol: To assess the interactions between truncated PDGF-C and the PDGF alpha and beta receptors, truncated PDGF-C was tested for its capacity to bind to porcine aortic endothelial-1 (PAE-1) cells expressing PDGF alpha or beta receptors, respectively (Eriksson et al., EMBO J, 1992 11:543-550). The binding experiments were performed essentially as described in Heldin et al. (EMBO J, 1988 7:1387-1393). Five micrograms of truncated PDGF-C protein in ten microliters of sodium borate buffer was radiolabeled using the Bolton-Hunter reagent (Amersham) to a specific activity of 4×10⁵ cpm/ng. Different concentrations of radiolabeled truncated PDGF-C, with or without added unlabeled protein, in binding buffer (PBS containing 1 mg/ml of bovine serum albumin) was added to the receptor expressing PAE-1 cells plated in 24-well culture dishes on ice for 90 minutes. After three washes with binding buffer, cell-bound ¹²⁵I-labeled PDGF-C was extracted by lysis of cells in 20 mM Tris-HCl, pH 7.5, 10% glycerol, 1% Triton X-100. The amount of cell-bound radioactivity was determined in a gamma-counter. Non-specific binding was estimated by including a 100-fold molar excess of truncated PDGF-C in some experiments. […] The binding was specific as radiolabeled PDGF-C was quantitatively displaced by a 100-fold molar excess of unlabeled protein. […]

[2] = target: T2, human PDGF beta-receptor (human, UniProt P09619 33-1106); assay: competition with 125I-PDGF-BB on PAE-1 cells expressing human PDGF beta-receptor
T2 construct: whole, on cells; also called PDGF receptor beta; PDGFR-beta
Protocol: Next, full length and truncated PDGF-C were tested for their capacity to bind to human PDGF receptors alpha and beta by analyzing their abilities to compete with PDGF-BB for binding to PDGF receptors. The binding experiments were performed on porcine aortic endothelial-1 (PAE-1) cells stably expressing the human PDGF receptors alpha and beta (Eriksson et al., EMBO J, 1992, 11, 543-550). Binding experiments were performed essentially as in Heldin et al. (EMBO J, 1988, 7:1387-1393). Different concentrations of human full-length and truncated PDGF-C, or human PDGF-BB were mixed with 5 ng/ml of ¹²⁵I-PDGF-BB in binding buffer (PBS containing 1 mg/ml of bovine serum albumin). Aliquots were incubated with the receptor expressing PAE-1 cells plated in 24-well culture dishes on ice for 90 minutes. After three washes with binding buffer, cell-bound ¹²⁵I -PDGF-BB was extracted by lysis of cells in 20 mM Tris-HCl, pH 7.5, 10% glycerol, 1% Triton X-100. The amount of cell bound radioactivity was determined in a gamma-counter. A standard curve for the binding of ¹²⁵I-labeled PDGF BB homodimers to PAE-1 cells expressing PDGF alpha-receptor is shown in FIG. 18. An increasing excess of the unlabeled protein added to the incubations competed efficiently with cell association of the radiolabeled tracer.

T1 sequence (P16234 24-1089): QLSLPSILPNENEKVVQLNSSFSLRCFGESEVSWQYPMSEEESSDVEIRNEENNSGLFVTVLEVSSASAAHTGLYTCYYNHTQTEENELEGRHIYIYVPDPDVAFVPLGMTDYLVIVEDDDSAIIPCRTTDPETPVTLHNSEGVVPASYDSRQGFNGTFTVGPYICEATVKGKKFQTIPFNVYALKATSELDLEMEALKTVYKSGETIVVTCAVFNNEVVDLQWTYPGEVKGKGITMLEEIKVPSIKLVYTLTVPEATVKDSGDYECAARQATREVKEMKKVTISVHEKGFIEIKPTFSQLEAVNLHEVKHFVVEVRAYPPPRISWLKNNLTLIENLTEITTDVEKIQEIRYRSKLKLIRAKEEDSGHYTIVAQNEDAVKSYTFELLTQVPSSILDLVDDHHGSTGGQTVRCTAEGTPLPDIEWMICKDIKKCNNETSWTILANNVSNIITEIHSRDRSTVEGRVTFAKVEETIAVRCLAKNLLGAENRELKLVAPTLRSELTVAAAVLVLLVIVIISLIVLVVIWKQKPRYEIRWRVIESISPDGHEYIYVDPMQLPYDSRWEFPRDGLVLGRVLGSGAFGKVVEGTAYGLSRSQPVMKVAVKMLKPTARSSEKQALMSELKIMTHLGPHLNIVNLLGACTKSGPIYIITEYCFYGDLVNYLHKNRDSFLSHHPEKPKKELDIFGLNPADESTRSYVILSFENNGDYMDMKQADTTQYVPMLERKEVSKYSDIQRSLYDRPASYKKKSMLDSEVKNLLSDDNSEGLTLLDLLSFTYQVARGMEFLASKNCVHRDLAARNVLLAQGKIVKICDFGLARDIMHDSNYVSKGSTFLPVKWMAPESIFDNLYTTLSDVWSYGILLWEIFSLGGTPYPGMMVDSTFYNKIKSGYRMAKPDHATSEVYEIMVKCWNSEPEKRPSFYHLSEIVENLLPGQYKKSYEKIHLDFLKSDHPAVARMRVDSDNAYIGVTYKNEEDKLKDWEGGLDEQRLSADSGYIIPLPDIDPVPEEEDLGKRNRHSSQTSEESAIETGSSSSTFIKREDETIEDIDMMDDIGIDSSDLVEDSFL
Chain of human PDGF beta-receptor (P09619 33-1106): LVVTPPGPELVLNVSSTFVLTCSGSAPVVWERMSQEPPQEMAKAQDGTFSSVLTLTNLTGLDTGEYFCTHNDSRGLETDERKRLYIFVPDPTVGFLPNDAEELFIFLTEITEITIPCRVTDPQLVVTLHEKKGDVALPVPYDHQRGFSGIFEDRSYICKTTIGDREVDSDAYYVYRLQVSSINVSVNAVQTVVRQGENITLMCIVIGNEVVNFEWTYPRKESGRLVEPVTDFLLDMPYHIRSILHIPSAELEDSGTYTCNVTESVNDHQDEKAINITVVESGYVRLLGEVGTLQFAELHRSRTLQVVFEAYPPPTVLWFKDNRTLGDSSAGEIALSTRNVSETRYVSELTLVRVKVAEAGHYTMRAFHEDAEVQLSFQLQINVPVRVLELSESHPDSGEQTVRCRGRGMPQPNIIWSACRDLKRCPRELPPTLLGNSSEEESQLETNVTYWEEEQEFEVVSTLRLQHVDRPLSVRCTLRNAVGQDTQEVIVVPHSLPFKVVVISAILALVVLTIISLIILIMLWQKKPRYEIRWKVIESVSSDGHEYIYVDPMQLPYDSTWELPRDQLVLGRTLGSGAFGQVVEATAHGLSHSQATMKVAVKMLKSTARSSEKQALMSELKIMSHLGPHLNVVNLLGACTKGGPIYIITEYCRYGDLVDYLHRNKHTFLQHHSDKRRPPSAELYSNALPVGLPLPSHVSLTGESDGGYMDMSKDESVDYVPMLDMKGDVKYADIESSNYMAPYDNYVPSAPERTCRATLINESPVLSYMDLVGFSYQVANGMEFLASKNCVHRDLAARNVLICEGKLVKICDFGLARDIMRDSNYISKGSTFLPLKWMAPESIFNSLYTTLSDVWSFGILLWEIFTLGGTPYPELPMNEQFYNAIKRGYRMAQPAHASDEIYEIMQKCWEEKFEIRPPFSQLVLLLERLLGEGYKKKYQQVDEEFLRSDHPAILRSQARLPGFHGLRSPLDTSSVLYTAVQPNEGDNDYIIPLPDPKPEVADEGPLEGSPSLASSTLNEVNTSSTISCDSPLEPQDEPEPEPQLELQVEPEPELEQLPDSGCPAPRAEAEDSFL

B1: full length human PDGF-CC homodimer (recombinant, baculovirus-infected Sf9 cells, C-terminal enterokinase site and 6xHis tag) (ligand, not shown: small tags and cut ends)
chain: not shown
notes: Disulfide-linked dimer (90 kDa non-reduced, 55 kDa reduced); The 'full length coding part' (970 bp) was cloned in frame into pAcGP67A; The very similar forward primer of the CUB construct is said to start at residue 23; also called flPDGF-CC; full length PDGF-C
B1: no binding [1]; no binding [2].
